Reference: patent publication US20250361297A1 (ADAPTAM THERAPEUTICS S L, published 2025)
Where two headings read alike, the source gives them in different places.

Assays:
[1] = molecular target: T1, human Siglec-15, full length, expressed on cells (human, UniProt Q6ZMC9 20-328); assay: flow cytometry, THP-1 cells overexpressing human Siglec-15, ADC titrated, anti-human IgG-PE, gMFI
T1 construct: also called hS15; MOLM-13 Siglec-15 expressing cells
T1 sequence: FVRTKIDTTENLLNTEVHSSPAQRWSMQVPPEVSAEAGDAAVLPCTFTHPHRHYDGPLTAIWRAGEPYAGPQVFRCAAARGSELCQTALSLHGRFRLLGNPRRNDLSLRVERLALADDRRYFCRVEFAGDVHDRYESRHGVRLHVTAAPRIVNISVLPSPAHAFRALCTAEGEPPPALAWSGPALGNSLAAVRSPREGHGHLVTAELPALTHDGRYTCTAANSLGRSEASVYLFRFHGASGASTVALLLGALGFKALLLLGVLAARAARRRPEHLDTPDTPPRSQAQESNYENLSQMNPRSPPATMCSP

[2] = molecular target: T1, human Siglec-15, full length, expressed …; assay: as above; remark: listed apart in the source

B1: ZLA-1243-A01-MMAE (other)
VH: [sequence of about 100 residues not given]DNEWTPGSFFDYWGQGTLVTVSS
VL: QSALTQPASVSGSPGQSITISCTGTSSDVGGYNYVSWYQQHPGKAPKLMIYDVSNRPSGVSNRFSGSKSGNTASLTISGLQAEDEADYYCSSYTSSSTRVFGGGTKVTVL
modifications: vc-MMAE payload linker conjugated to the antibody; residue not stated
- binding result [1]: binds

B2: ZLA-1243-A01-Exatecan (other)
VH: [sequence of about 100 residues not given]DNEWTPGSFFDYWGQGTLVTVSS
VL: QSALTQPASVSGSPGQSITISCTGTSSDVGGYNYVSWYQQHPGKAPKLMIYDVSNRPSGVSNRFSGSKSGNTASLTISGLQAEDEADYYCSSYTSSSTRVFGGGTKVTVL
modifications: Antibody-drug conjugate: exatecan payload joined through an MC-GGFG linker. The attachment residues are not stated and the letters cannot carry the payload.
notes: member of group m29
- binding result [2]: binds
